Reference: the supplement of paper PMC4166925
± gives the standard deviation of the averaged measurements. The full ranking holds about 33,000 sequences; the median of “E-score (dimensionless, -0.5 to 0.5)” is about -0.046, and the highest 2% start at about 0.36. The list shows a part of the results.

The sequences below were run on T1, SpTbr T-box DNA-binding domain (GST fusion) (assay: PBM E-score of 8-mer (E-score (dimensionless, -0.5 to 0.5)); Tbr is Tbrain of the sea star Patiria miniata (Pm) or the sea urchin Strongylocentrotus purpuratus (Sp); higher = stronger binding preference; most listed sequences are background and not binding sites). Settings: the construct has about 5 more residues each side.
T1 sequence: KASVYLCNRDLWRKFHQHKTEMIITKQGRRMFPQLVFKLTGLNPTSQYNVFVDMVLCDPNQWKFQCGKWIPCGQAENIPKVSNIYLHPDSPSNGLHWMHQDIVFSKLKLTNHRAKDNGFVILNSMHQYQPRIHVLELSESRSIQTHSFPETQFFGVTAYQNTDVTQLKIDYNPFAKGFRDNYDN
Method: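 Universal protein-binding microarray (Agilent AMADID 016060, 60-bp probes with a 35-bp variable region) incubated with 200 nM GST-fused Strongylocentrotus purpuratus Tbr T-box DNA-binding domain (residues 362-554) in PBS pH 7.5. Scored for every ungapped 8-mer (given with its reverse complement) as E-score (range -0.5 to 0.5; >0.45 counts as bound) and Z-score of median probe intensity. Two replicate arrays (datasets 1 and 2).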
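Further: protein at 200 nM in PBS on universal double-stranded arrays.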

Sequence | PBM E-score of 8-mer
TACGACGA | 0.0259 ± 0.0024
ACCCCAAA | -0.0614 ± 0.014
CCTAAATA | -0.198 ± 0.055
AGCACCTC | 0.4014 ± 0.004
AACAAGGG | -0.00315 ± 0.054
ATATTTCA | 0.0717 ± 0.045
CTCCCAAA | -0.169 ± 0.0039
AAGATCTG | -0.153 ± 0.021
CGCATCAA | -0.0381 ± 0.0058
AAAATGGT | -0.0435 ± 0.06
AAACAAAC | -0.228 ± 0.044
TGTAGGAA | 0.0214 ± 0.022
ATGTCCTA | -0.273 ± 0.07
ACATCCCT | -0.04 ± 0.0046
AAATACCG | -0.206 ± 0.044
CACGTCCC | 0.245 ± 0.049
AGGTTGAA | -0.223 ± 0.043
AAGAGCTG | -0.0319 ± 0.028
TTATAGAA | -0.26 ± 0.047
CGCCACAG | 0.0527 ± 0.03
AGGCCCAA | -0.279 ± 0.018
CCGAAATA | 0.0489 ± 0.0096
CCTGTTTC | -0.151 ± 0.011
ATTGAAAG | -0.0924 ± 0.022
AGCAGTCA | 0.0234 ± 0.013

Sequence | PBM E-score of 8-mer
AAACCGTG | 0.148 ± 0.012
ACTTTTGG | 0.0233 ± 0.0029
TATCCATA | -0.208 ± 0.0057
CCTGCAGC | -0.0772 ± 0.032
CCGTTACA | 0.00715 ± 0.011
GCCGCATA | -0.0209 ± 0.065
TATCGGGA | 0.0387 ± 0.084
AGTTAGTG | 0.0353 ± 0.021
AAATAGAT | -0.268 ± 0.054
TGCCAACA | 0.333 ± 0.0035
ACCGGCGA | -0.13855 ± 0.00012
CTCTATAA | -0.0438 ± 0.02
ATAAGCAC | 0.00483 ± 0.072
CATATAGG | 0.0518 ± 0.0081
TACTGACA | 0.132 ± 0.0027
ACTGTGAT | 0.242 ± 0.0029
AAACTATC | -0.145 ± 0.1
ACATCATC | -0.149 ± 0.06
CTGGGTGC | 0.209 ± 0.037
GGCCAATA | -0.125 ± 0.0026
CGATTCCG | -0.0784 ± 0.06
CTCGTAGA | -0.325 ± 0.04
AGCTTACA | 0.115 ± 0.012
TAGCGGCA | 0.115 ± 0.063
GGGAGGAA | -0.2 ± 0.0029

Sequence | PBM E-score of 8-mer
AAACCAGC | -0.063 ± 0.055
GAAGTGGA | -0.0393 ± 0.019
GGAGTATA | -0.277 ± 0.051
GACCTCCA | -0.196 ± 0.041
TCCGGCGA | -0.0986 ± 0.032
CCGGACAA | -0.149 ± 0.026
AACGCGGC | 0.0574 ± 0.041
CGGTCTTC | -0.0729 ± 0.0042
GTGATCGA | 0.175 ± 0.039
ATGAATGA | -0.1848 ± 0.0014
GGAAAGCC | -0.185 ± 0.019
CCCATGAG | -0.103 ± 0.0073
GTCCCTTA | -0.1 ± 0.0091
ATTGGCCA | -0.0538 ± 0.026
TGGTGCAA | 0.214 ± 0.0077
GAGAGCTA | -0.0489 ± 0.017
AACGACGA | 0.145 ± 0.018
GAAGATGA | 0.183 ± 0.031
ACCGTACA | -0.159 ± 0.05
GTACGCCA | -0.202 ± 0.0083
CTGACTAC | -0.224 ± 0.031
ACTAAACG | -0.214 ± 0.039
GCATGGCA | -0.0508 ± 0.02
CACCGCAC | 0.0824 ± 0.029
GCGAAACC | 0.307 ± 0.0033

Sequence | PBM E-score of 8-mer
ACGGGTAA | 0.000385 ± 0.077
CAGCTTGG | -0.00698 ± 0.044
CTAACCTC | -0.158 ± 0.041
GAGGCCCC | -0.296 ± 0.057
AGGCCCAT | -0.319 ± 0.025
AAAGGAAC | -0.038 ± 0.014
GCGCCCAA | 0.0396 ± 0.066
TCTATAGA | -0.374 ± 0.033
CCGAGAGC | -0.0317 ± 0.13
ATTAGCAA | -0.0446 ± 0.11
AAAGGTTA | -0.0434 ± 0.072
ACCGCCGC | 0.0379 ± 0.064
ACCGCGTC | 0.117 ± 0.036
TATCGTAA | -0.0909 ± 0.038
AAAAGCAG | -0.0199 ± 0.017
GGTGATAC | 0.221 ± 0.028
ATAAGGAC | -0.219 ± 0.013
CAACGGTA | -0.116 ± 0.029
ACACGTGC | 0.3851 ± 0.0015
ACGGGAGC | -0.113 ± 0.013
CACAGCAG | -0.0256 ± 0.044
CCAGATGA | -0.34398 ± 4.9e-05
TAGGTCCA | -0.152 ± 0.011
TATCTTAA | -0.137 ± 0.032
ATTATCAC | 0.29 ± 0.043

Sequence | PBM E-score of 8-mer
AATACGTA | -0.163 ± 0.082
CATGAACG | -0.106 ± 0.015
AGTCTCAC | 0.313 ± 0.0076
GGGGGCGA | -0.0505 ± 0.016
CTGCGTAC | -0.12 ± 0.058
CCCAAGCC | -0.2601 ± 0.00047
AATCGATT | -0.216 ± 0.034
CAGCCACA | 0.123 ± 0.04
CTGGCACC | 0.367 ± 0.018
GTGTGTAA | 0.27 ± 0.0036
AGAACCAC | -0.12 ± 0.029
ACGATCGT | -0.175 ± 0.055
CCTCTTGA | -0.071 ± 0.021
GGCCTGTA | -0.303 ± 0.0034
GTGGGGAA | 0.262 ± 0.0045
AAGGCCAT | -0.155 ± 0.0045
CTGCGCAC | 0.172 ± 0.038
GGTGTTAA | 0.472 ± 0.0062
GCCGGTCA | 0.175 ± 0.014
GCGAAACA | 0.151 ± 0.0083
ACCATTGC | -0.12 ± 0.034
CGAGTTAC | -0.0204 ± 0.029
CTCAATTC | -0.116 ± 0.14
CTCACGAG | 0.119 ± 0.028
AGAGGTTC | -0.172 ± 0.065

Sequence | PBM E-score of 8-mer
ATCATGCA | -0.259 ± 0.0071
GGACGAAC | -0.112 ± 0.075
CCGAATAC | -0.0835 ± 0.018
AAATAATG | -0.0772 ± 0.12
GCTAAGCA | -0.0675 ± 0.058
CGTTGTAA | -0.0727 ± 0.022
ACCCTGGC | 0.154 ± 0.072
GTAAGATA | -0.165 ± 0.06
ATATGGTA | -0.124 ± 0.02
AACGTAGT | -0.231 ± 0.047
CACATTGA | 0.129 ± 0.02
GATCACAA | 0.251 ± 0.0097
ATATACAA | -0.19 ± 0.052
TATCAAAA | -0.21 ± 0.061
ACTACATC | -0.0297 ± 0.028
CTCGTCAC | 0.389 ± 0.024
CAACTTTA | 0.0802 ± 0.025
GAAACGGC | -0.101 ± 0.093
CCAAGCAC | -0.109 ± 0.025
GCCCGAGA | 0.0371 ± 0.0059
CGAGTTAG | -0.115 ± 0.019
GACAGGGA | -0.0423 ± 0.006
AAAGCGTT | 0.0855 ± 0.062
CCCGTAGG | -0.126 ± 0.049
CTACACAA | -0.056 ± 0.022

Sequence | PBM E-score of 8-mer
GGCACCCA | 0.173 ± 0.021
ATAGCCGG | -0.203 ± 0.015
CCTCCATA | -0.14 ± 0.024
CGCTCCCA | -0.0368 ± 0.018
CCTAACTA | -0.0103 ± 0.095
GTTTGTAA | 0.0475 ± 0.044
CCCAGATC | 0.0162 ± 0.031
ACATTCTG | 0.0898 ± 0.021
CAAGAGTC | -0.191 ± 0.037
GCATAACC | -0.118 ± 0.015
ATACCCGG | 0.00351 ± 0.046
ATGGAAAC | -0.1 ± 0.021
CACTGGGG | -0.212 ± 0.047
CAGACAAA | -0.0589 ± 0.033
GCGTCGTA | -0.193 ± 0.052
CCTGCAGA | -0.106 ± 0.024
AACCGCCC | -0.139 ± 0.045
CACAATGC | 0.00438 ± 0.0047
GAAAGCAC | 0.0217 ± 0.045
ATGAATCG | -0.00836 ± 0.055
GCAGTGGA | -0.261 ± 0.065
ACACTTAG | 0.383 ± 0.038
